The values that follow come from PMC12136788.

The other results are listed elsewhere or left out.

The chains are these.
T1: UNK ZnF1-6 (called full-length) (human, UniProt Q9C0B0 30-357)
T1 sequence: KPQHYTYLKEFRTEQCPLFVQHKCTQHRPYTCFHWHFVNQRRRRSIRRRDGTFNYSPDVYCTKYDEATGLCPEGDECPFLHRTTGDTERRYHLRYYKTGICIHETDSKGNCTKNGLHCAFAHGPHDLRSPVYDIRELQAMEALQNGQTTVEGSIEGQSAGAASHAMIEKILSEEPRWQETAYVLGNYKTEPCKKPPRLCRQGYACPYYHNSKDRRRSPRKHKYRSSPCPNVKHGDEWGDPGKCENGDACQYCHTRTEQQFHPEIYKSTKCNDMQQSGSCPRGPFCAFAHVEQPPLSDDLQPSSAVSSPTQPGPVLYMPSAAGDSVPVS

B1: chr6:77462233:77463403:-|CDS|ENSG00000135312|control|control|control (ssRNA)
RNA: GGGAGUUCUACAGUCCGACGAUCACCCUUCUUCAUCAUCUCCCUAGUGAUGCCUAUCUGCAAAGAUGCCUGCUGGUUCCACCUAGCCAUCUUUGACUUCUUCACAUGGCUGGGCUAUCUCAACUCCCUCAUCAACCCCAUAAUCAACAGAGGAUUGAGCAUCA
B2: chr1:234405902:234406099:-|CDS|ENSG00000059588|control|control|control (ssRNA)
RNA: GGGAGUUCUACAGUCCGACGAUCCCUUAUAGUUGUGCUGCAGUGGUGUUUCAAUCACAAUUUUAGUGUUCGACUGUAUGCUUUAGUUGCUCUUAAGAAACUCUGGACUGUGUGUAAAGUGUUAAGUGUUGAAGAAUUUGAUGCCAACAGAGGAUUGAGCAUCA
B3: chr13:46895483:46895906:-|CDS|ENSG00000102468|control|control|control (ssRNA)
RNA: GGGAGUUCUACAGUCCGACGAUCAGUGUCCCUAGAGAAAAAGCUGCAGAAUGCCACCAACUAUUUCCUGAUGUCACUUGCCAUAGCUGAUAUGCUGCUGGGUUUCCUUGUCAUGCCCGUGUCCAUGUUAACCAUCCUGUAUGGCAACAGAGGAUUGAGCAUCA
B4: chr22:41245667:41245769:-|3pUTR|ENSG00000100401|msi1|total|mutant (ssRNA)
RNA: GGGAGUUCUACAGUCCGACGAUCCAAUGUCCGAGCUGCAUCUGGACGCUGCUCUUAAAGGACCUCCUGGGGCAGGGGAGCGGCCGGGUCUGGACUGGGCAGAUGCUGUAUGACCUCCCUGAGCACCCGUGACUGCCCCAUGCUCAACAGAGGAUUGAGCAUCA
B5: ENSG00000070961:be:win_1301|CDS|ENSG00000070961|bound_else_gene|NA|bound_elsewhere_windowed (ssRNA)
RNA: GGGAGUUCUACAGUCCGACGAUCGUCUUCCACUUGCAGUCACGAUCUCACUGGCUUAUUCAGUCAAAAAAAUGAUGAAAGAUAAUAACUUAGUAAGGCAUCUGGAUGCUUGUGAAACCAUGGGAAAUGCUACAGCUAUUUGUUCAACAGAGGAUUGAGCAUCA
B6: chr1:54850123:54850236:-|3pUTR|ENSG00000116133|msi1_unk|total|mutant (ssRNA)
RNA: GGGAGUUCUACAGUCCGACGAUCGCCUCCAACCCUAAGCCACUGGGACGGUGGCCAGAGAUGCCAGCAGCCUCUGUCGCCCUCCGUCAUAUAACCAAAAUCCAGACCUUAUCCACAACCCGGGGCUUGGAAAGGAAGGUAUUUCAACAGAGGAUUGAGCAUCA
B7: chr12:132722103:132722204:+|3pUTR|ENSG00000247077|msi1|total|mutant (ssRNA)
RNA: GGGAGUUCUACAGUCCGACGAUCGCUUCGCCUUUGACCUUCAUGCUGGUCUCGGCUGAGGUGACACGCCCGUGACAGCCCAACCGGGGGUUACCCUUAUUGAGUAAAAUACUUCAGAUUGACAGCUCAAUCUCCGUUUGCCUCCAACAGAGGAUUGAGCAUCA
B8: chr3:122768741:122768856:-|CDS|ENSG00000169087|unk|total|mutant (ssRNA)
RNA: GGGAGUUCUACAGUCCGACGAUCACAUGUAAUUACGCCGAAGCUACACUCGAAGAGUUUCUGACCUGGAACUGUGACCAGUCCCGUAUUUCUGGACCAUUCCGAGAUUAUGACCAUUCCAAGUUCUGGGCUUAUGCUGACUAUCAACAGAGGAUUGAGCAUCA
B9: chr17:47658542:47658643:+|CDS|ENSG00000108424|unk|total|mutant (ssRNA)
RNA: GGGAGUUCUACAGUCCGACGAUCGAUUCUGACUGCCAUAAUCCAGGGGAUGAGGAAAGAAGAGCCCCGUAAUAAUGUGAAGCCCGCUGCUACGAAUGCACUCCUGAACUCAUUGGAGUUCACCAAAGCAAACUUUGAUAAAGACAACAGAGGAUUGAGCAUCA
B10: chr21:42850051:42850242:-|CDS|ENSG00000160193|control|control|control (ssRNA)
RNA: GGGAGUUCUACAGUCCGACGAUCCACGUUCGACAACGUGACCUCCUACCUGAAGAAGAAAGAGGAGAGACUGCAGCAGCAGCUAGAGAAGAAGCAGCGGCGCCGGAGUCCCCCGCCUGGGCCCGACGGGCAUGCCAAGAAGAUCAACAGAGGAUUGAGCAUCA
B11: chr10:62096657:62096758:+|3pUTR|ENSG00000150347|msi1|FALSE|unique (ssRNA)
RNA: GGGAGUUCUACAGUCCGACGAUCACCUCUAUGCUCUGUAAGGUGAUUAUUUGUAUAUAGCAACAUGGCCCAGUGAUAUUAUAUAGUUUCCCAAUGGAGAGGUUAUUGAGUAACCUUUGCAUUAGUUUAAACACUACCAGAAGACAACAGAGGAUUGAGCAUCA
B12: ENSG00000127022:stop:overlap|stop_codon|ENSG00000127022|stop_codon|NA|stop_codon (ssRNA)
RNA: GGGAGUUCUACAGUCCGACGAUCACACAUUUUGUUUUACCAAGCUGAAGGUACAUUUAUGUAAAGGGAAUAUUUUAAUAGGGUAGUUUACAGUGGCUUAUGGCAGUAAAAAUUCUGUUAAAGCCAAUUUUGUUGAAGUGGGAUCAACAGAGGAUUGAGCAUCA
B13: chr17:59607285:59607386:+|3pUTR|ENSG00000108406|unk|total|mutant (ssRNA)
RNA: GGGAGUUCUACAGUCCGACGAUCUAAAUCAAAGCUCAUCAGUUCCCAUAAAUGCAGUUGUCAAAGAAAAGAUUUGGUUGCCACCGUCAUAAGCAAUGAUACAUGAAACCAAUGAAAGACAGUACAUGUAAUAAUAUUUUCCUCCAACAGAGGAUUGAGCAUCA
B14: chr1:23094017:23094118:-|CDS|ENSG00000169641|unk|FALSE|unique (ssRNA)
RNA: GGGAGUUCUACAGUCCGACGAUCCUCCAGAAAGCAGAGGAUGAACUCCUGGAUCUCCAGGACAAGGUGAUUCAGGCAGAAGGUAGCAACUCCAGCAUGUUGGCGGAGAUUGAAGUGCUGCGCCAGCGGGUGCUGAGAAUUGAACAACAGAGGAUUGAGCAUCA

This experiment has as its target T1, UNK ZnF1-6 (called full-length). Put plainly: nsRBNS (natural sequence RNA bind-n-seq); RBNS binding buffer (assumed for nsRBNS): 25 mM Tris pH 7.5, 150 mM KCl, 3 mM MgCl2, 0.01% Triton X-100, 500 ug/ml BSA, 20 U/ml SUPERase-In, 4 C; UNK is unkempt and MSI1 is Musashi-1; names of the RNAs are library labels; protein concentration not given here; high values mean tight binding.
In the case of B1, the binding signal came out at 0.845 enrichment R.
Under B2 stands 0.664 enrichment R.
Then B3, with 0.647 enrichment R; and B4, with 0.615 enrichment R.
As for B5, the binding signal was found to be 0.382 enrichment R.
Then B6, with 1.11 enrichment R.
Take B7: the binding signal was determined as 0.374 enrichment R.
Under B8 stands 0.54 enrichment R; under B9, 0.614 enrichment R.
Under B10 stands 0.8 enrichment R; under B11, 0.888 enrichment R; under B12, 0.76 enrichment R.
With B13, the binding signal turned out to be 0.384 enrichment R.
Molecule B14 came in with a binding signal of 0.513 enrichment R.
